Z-score data for 66 molecules are collected here from PubChem BioAssay AID488969 (Vanderbilt High Throughput Screening Facility, 2010).

Whole data set: some 110,000 compounds, median “z-score” near -0.1, cut for the highest 2% near 2. The list shows a part of the results.

For the experiment, the target named is Metabotropic glutamate receptor 8 (Rattus norvegicus) (UniProt P70579). The experiment is described as follows: mGluR8 Gi/Go-coupled signaling modulation – cell-based, rat, thallium flux, HTS, primary screen (AID 488969). As to conditions: HEK293 rat mGluR8, GIRK (G protein-gated inwardly rectifying potassium channel) thallium flux, FluoZin2; at 10 µM; stronger effect = higher value; submaximal glutamate (EC20) added with thallium.
Chain of UniProt P70579 (P70579 whole entry, looked up): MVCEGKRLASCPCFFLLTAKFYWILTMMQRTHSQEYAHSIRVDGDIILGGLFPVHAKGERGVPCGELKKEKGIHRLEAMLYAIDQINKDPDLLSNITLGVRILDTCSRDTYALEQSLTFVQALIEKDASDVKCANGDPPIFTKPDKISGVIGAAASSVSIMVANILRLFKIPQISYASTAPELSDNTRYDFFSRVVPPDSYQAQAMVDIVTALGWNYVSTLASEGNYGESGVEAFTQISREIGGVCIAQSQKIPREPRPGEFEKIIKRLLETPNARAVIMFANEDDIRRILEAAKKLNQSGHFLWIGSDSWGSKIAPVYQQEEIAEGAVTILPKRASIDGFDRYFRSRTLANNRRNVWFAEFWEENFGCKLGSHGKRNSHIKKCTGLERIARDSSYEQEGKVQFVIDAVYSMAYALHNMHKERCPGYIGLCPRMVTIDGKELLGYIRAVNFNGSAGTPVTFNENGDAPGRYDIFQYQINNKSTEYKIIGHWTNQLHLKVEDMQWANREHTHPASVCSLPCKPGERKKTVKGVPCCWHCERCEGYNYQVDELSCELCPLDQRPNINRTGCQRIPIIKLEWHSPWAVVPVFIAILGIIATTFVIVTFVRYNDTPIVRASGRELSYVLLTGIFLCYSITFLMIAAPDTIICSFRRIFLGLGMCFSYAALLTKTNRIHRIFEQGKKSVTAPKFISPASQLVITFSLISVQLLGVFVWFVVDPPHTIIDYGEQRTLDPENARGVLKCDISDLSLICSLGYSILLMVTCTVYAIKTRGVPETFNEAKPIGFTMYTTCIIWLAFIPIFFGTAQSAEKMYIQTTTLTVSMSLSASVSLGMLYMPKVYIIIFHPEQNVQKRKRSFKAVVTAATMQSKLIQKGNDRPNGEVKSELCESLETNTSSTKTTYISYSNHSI
`CN1CCN(CCCNC(=O)CCCOc2cc(=O)n(C)c3ccccc23)CC1` registered a z-score of -0.144. In the case of `COC(=O)C(/C=N/OCc1ccc([N+](=O)[O-])cc1)NC(=O)c1ccccc1` (stereo unspecified) it was -0.745. In the case of `N#Cc1c(NC(=O)CCN2C(=O)c3ccccc3C2=O)oc(-c2ccccc2)c1-c1ccccc1` it was -1.42. Regarding `O=C(CCl)Nc1cccc(-c2cnc3ccccc3n2)c1`, the z-score is -0.282. `COc1ccc(NS(=O)(=O)c2ccc(OC)c3ccccc23)cn1` registered a z-score of -0.0858. In the case of `COc1ccc(OCC(=O)OC2CCN(C)CC2)cc1` it was 0.0181. In the case of `CC(C)COc1ccc(CNC(=S)NCc2ccccc2)cc1` it was 0.59; in that of `Cc1ccccc1C(O)c1ccncc1` (stereo unspecified), 0.19; in that of `CC(/C=C(\NC(=O)c1ccccc1)C(=O)N=Nc1c(O)[nH]c2ccc(C)cc12)=C\c1ccccc1`, -0.172. In the case of `COc1ccc(CC(=O)n2nc(-c3cccnc3)nc2N)cc1` it was 1.36; in that of `C=CCn1c(C)cc(C(=O)CSc2nnc(-c3cccc(S(=O)(=O)N(CC)CC)c3)o2)c1C`, -0.096. Turning to `COc1cccc(C(O)c2nc3ccccc3n2C(C)C)c1` (stereo unspecified), the z-score was -0.377. In the case of `Cc1ccc(C(=O)N/C(=C/c2ccco2)C(=O)OCN2C(=O)c3ccccc3C2=O)cc1` it was 0.551; in that of `CN(C(=O)COc1cc(=O)n(C)c2ccccc12)c1ccc(Br)cc1`, -0.219.

Turning to `Cc1oc(-c2ccc(F)cc2)cc1-c1nn2c(-c3ccco3)nnc2s1`, the z-score was -0.427. `Cc1ccc(/C=N/NC(=O)c2cccs2)o1` came in with a z-score of 0.639. Take `CCCCOCCCNC(=O)COc1ccccc1`: the z-score was -0.237. In the case of `CC(C)CCNC(=O)c1nnc(Cc2ccc(Cl)cc2)o1` it was 0.102.

`Cc1ccc(S(=O)(=O)NC(Cc2c[nH]c3ccccc23)C(=O)O)cc1` (stereo unspecified) displayed a z-score of -0.0187.

Consider `Cc1ccc(C)c(OCC(O)CN2CCC(CN3C(=O)c4cccc5cccc(c45)C3=O)CC2)c1` (stereo unspecified), for which the z-score is -0.000796.

With `CC1=NN(c2nc(-c3ccccc3)cs2)C(=O)C1`, the z-score is -0.297.

In the case of `Cc1ccc(NC(=O)c2ccncc2)cc1[N+](=O)[O-]`, the z-score is -0.142. In the case of `Cc1ccc(S(N)(=O)=O)cc1NC(=O)/C=C/c1cccs1` it was -0.204.

For `O=c1ccc(NS(=O)(=O)c2ccc(Cl)cc2)cn1Cc1ccc(Cl)c(Cl)c1`, the z-score was -0.0823.

Molecule `O=C(O)c1ccc(NC(=S)Nc2ccccc2)cc1` gave a z-score of -0.031. In the case of `C/C(CC(=O)Nc1ccccn1)=N\NC(=O)c1ccc2ccccc2c1` it was -0.53; in that of `CC(C)N(Cc1nc(-c2ccccc2)no1)C(=O)CCCN1C(=O)c2ccccc2C1=O`, -0.305. In the case of `Cc1ccc(-c2nnc(SCC(=O)n3c4c(c5ccccc53)CCCC4)o2)cc1` it was 0.0821; in that of `Cc1ccnc(NS(=O)(=O)c2ccc(N3C(=O)c4ccccc4C3=O)cc2)n1`, 0.0228; in that of `O=C(N/C=C\c1ccccc1)NCc1ccc(Cl)cc1`, 0.197. In the case of `NS(=O)(=O)c1ccc(CCNC(=O)CNC(=O)C2CCCCC2)cc1` it was -0.063; in that of `COC(=O)c1sccc1NC(=O)c1ccc(OC)cc1OC`, -0.199. Consider `COc1ccc(C2(C(N)=O)CCCCC2)cc1OC`, for which the z-score is -0.217. Regarding `Cc1ccccc1Nc1nc(N)nc(CSCc2c(C)noc2C)n1`, the z-score was -0.284.

Take `COc1ccc(C(=O)NCC(O)COc2ccc(C(C)(C)C)cc2)cc1[N+](=O)[O-]` (stereo unspecified): the z-score is -0.158. In the case of `CCC(CC)c1nc(C#N)c(NCc2ccccc2)o1` it was -0.971; in that of `CCOC(=O)C1=C(CSc2nccn2C)NC(=O)NC1c1ccc(OC)cc1` (stereo unspecified), -0.026; in that of `CC1(C)Oc2ccc3ccc(=O)oc3c2/C(=C/Nc2ccccc2)C1=O`, -0.126. In the case of `CCC(=O)N1CCN(c2ccc(NC(=O)c3c(F)c(F)c(OC)c(F)c3F)cc2)CC1` it was 0.0901; in that of `COc1cccc(/C=C(/C(=O)OCC(=O)NC2CCCC(C)C2C)c2ccccc2)c1` (stereo unspecified), -0.279. In the case of `CC(/C=C1\SC(=S)N(CC(=O)N2CCN(c3ccccc3)CC2)C1=O)=C\c1ccccc1` it was 0.122. In the case of `CCCCN(CC)CCCNC(=O)Cn1nc(Cc2cccnc2)c2ccccc2c1=O`, the z-score is 0.275.

`COCCN(Cc1cc2cc3c(cc2n2nnnc12)OCO3)C(=O)c1ccccc1F` came in with a z-score of 0.896. In turn, `NS(=O)(=O)c1cc(C(=O)NCCOc2ccccc2)c(Cl)cc1Cl` returned a z-score of -0.133.

Take `O=C(CSc1nnc(-c2ccccc2)o1)N1CCN(c2ccccc2)CC1`: the z-score is -0.148.

Consider `CCN(CC)C(=O)CSC1=N/C(=C/c2ccco2)C(=O)N1c1ccc(OC)c(Cl)c1`, for which the z-score is 0.509.

As for `Cc1ccc(-c2nc3ncccc3o2)cc1NC(=O)COc1ccccc1`, the z-score turned out to be 0.0918. In the case of `O=C(CCCCn1c(=O)c2ccccc2n(Cc2ccc(Cl)cc2)c1=O)NCc1ccco1` it was 0.768; in that of `CCCCNC(=O)Nc1c(C(=O)OC)[nH]c2ccc(C)cc12`, -0.153. In the case of `CC(NC(=O)/C(C#N)=C/c1cn[nH]c1-c1ccccc1)c1ccccc1` (stereo unspecified) it was -1.15. In the case of `Cn1c2c(c(=O)n(C)c1=O)C(C(F)(F)F)(C(F)(F)F)N=C(c1ccc(Cl)cc1)N2` it was -0.284; in that of `O=C(/C(=N/N=C/c1ccc(O)c(O)c1)c1ccccc1)c1ccccc1`, -0.141. For `CCOc1ccc(NC(=O)CCS(=O)(=O)c2ccc3c(c2)CCCN3C(C)=O)cc1`, the z-score is 0.801. In the case of `Cc1ccc(S(=O)(=O)Cn2nnnc2CN2CCOCC2)cc1` it was -0.0838; in that of `COCn1ccnc1C(O)(c1ccc(OC)cc1)c1ccc(OC)cc1`, -0.182.

As for `O=[n+]1c2c(n([O-])c3cc(Cl)ccc31)CCCC2`, the z-score is -0.371. In the case of `Cc1cccc(NC(=O)c2cc(NC(=O)c3ccccc3)ccc2N2CCCCC2)c1` it was -0.201; in that of `CCN(c1ccc2c(c1)OCO2)S(=O)(=O)c1cc(Br)cc2c1N(C(=O)C1CC1)CC2`, -2.92. In the case of `COc1ccc(C2=C(C=Nc3c(C)n(C)n(-c4ccccc4)c3=O)C(c3ccccc3C)c3ccccc3O2)cc1OC` (stereo unspecified) it was 0.339. `COc1cccc(N(CC(=O)Nc2cccc(N(C)S(C)(=O)=O)c2)S(C)(=O)=O)c1` returned a z-score of -0.0275. In the case of `Cc1sc2nc(CN(Cc3ccccc3)C(=O)NC3CCCCC3)[nH]c(=O)c2c1C` it was -0.145; in that of `CCOC(=O)c1cnc2ccc(C)cc2c1Sc1ccc(F)cc1`, -0.262; in that of `Cc1ccc(Nc2nc(-c3sc(NC(=O)c4ccco4)nc3C)cs2)cc1`, -0.13. In the case of `CC(=O)Oc1cc2c(C(=O)NCCN3CCOCC3)c(C)oc2c2ccccc12` it was 0.772; in that of `O=C(c1ccco1)N1CCN(Cc2nc3ccc([N+](=O)[O-])cc3c(=O)n2-c2ccccc2F)CC1`, -0.099.

In the case of `COc1ccccc1NC(=O)C1C2C=CC3(CN(Cc4cccnc4)C(=O)C13)O2` (stereo unspecified), the z-score came to 1.76.
